# Source: the supplement of paper PMC8728848
# Some of the results follow.
# B1: rAAL (Agrocybe aegerita), Q6WY08 (protein)
# chain: MQGVNIYNISAGTSVDLAAPVTTGDIVTFFSSALNLNAGAGNPNNTTLNLFAENGAYLLHIAFRLQENVIIFNSRQPDGPWLVEQAVSDVANQFAGIDGKAMVTVFDHGDKYQVVINEKTVIQYTKQISGLTLSLSYNATEETSIFSTVVEAVTYTGLALEHHHHHH
# Key:
# Experiment in all cases: glycan array binding signal (z-score within array); higher = stronger binding
# Conditions in all cases: glycan notation: IUPAC condensed, linker removed; mutation: R85A
# [1] = molecular target: Gal3S(b1-4)[Fuc(a1-3)]Glc
# In short: (§1)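 Glycan array data came from 3228 arrays in the Consortium for Functional Glycomics database, and only arrays with an available protein sequence were kept. Glycan names were put into IUPAC-condensed notation, and columns mapping to the same glycan were averaged. The binding signal is a within-array Z-score, averaged across arrays of one protein sequence run at different concentrations or buffers and across linkers. A negative Z-score can be read as non-binding.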
# [2] = molecular target: Gal3S(b1-4)[Fuc(a1-3)]Glc6S
# In short: as §1
# Gal3S4S(b1-4)GlcNAc = molecular target: Gal3S4S(b1-4)GlcNAc
# In short: as §1
# Gal3S6S(b1-4)GlcNAc = molecular target: Gal3S6S(b1-4)GlcNAc
# In short: as §1
# Gal3S6S(b1-4)GlcNAc6S = molecular target: Gal3S6S(b1-4)GlcNAc6S
# In short: as §1
# Gal4S(b1-4)GlcNAc = molecular target: Gal4S(b1-4)GlcNAc
# In short: as §1
# Gal4S6S(b1-4)GlcNAc = molecular target: Gal4S6S(b1-4)GlcNAc
# In short: as §1
# Gal6S(b1-4)Glc = molecular target: Gal6S(b1-4)Glc
# In short: as §1
# Gal6S(b1-4)Glc6S = molecular target: Gal6S(b1-4)Glc6S
# In short: as §1
# Gal6S(b1-4)GlcNAc = molecular target: Gal6S(b1-4)GlcNAc
# In short: as §1
# Gal6S(b1-4)GlcNAc6S = molecular target: Gal6S(b1-4)GlcNAc6S
# In short: as §1
# GalNAc(a1-3)Gal = molecular target: GalNAc(a1-3)Gal
# In short: as §1
# GalNAc(a1-3)GalNAc = molecular target: GalNAc(a1-3)GalNAc
# In short: as §1
# [3] = molecular target: GalNAc(a1-3)GalNAc(a1-3)Gal(a1-4)Gal(b1-4)GlcNAc
# In short: as §1
# GalNAc(b1-3)Gal = molecular target: GalNAc(b1-3)Gal
# In short: as §1
# [4] = molecular target: GalNAc(b1-3)Gal(a1-4)Gal(b1-4)GlcNAc
# In short: as §1
# [5] = molecular target: GalNAc(b1-3)Gal(a1-4)Gal(b1-4)GlcNAc(b1-3)Gal(b1-4)Glc
# In short: as §1
# [6] = molecular target: GalNAc(b1-3)Gal(a1-6)Gal(b1-4)Glc
# In short: as §1
# GalNAc(b1-3)GalNAc = molecular target: GalNAc(b1-3)GalNAc
# In short: as §1
# GalNAc(b1-4)GlcNAc = molecular target: GalNAc(b1-4)GlcNAc
# In short: as §1
# [7] = molecular target: GalNAc(b1-4)GlcNAc(b1-2)Man(a1-3)[GalNAc(b1-4)GlcNAc(b1-2)Man(a1-6)]Man(b1-4)GlcNAc(b1-4)GlcNAc
# In short: as §1
# Glc(a1-4)Glc = molecular target: Glc(a1-4)Glc
# In short: as §1
# Glc(a1-6)Glc(a1-6)Glc = molecular target: Glc(a1-6)Glc(a1-6)Glc
# In short: as §1
# Glc(b1-4)Glc = molecular target: Glc(b1-4)Glc
# In short: as §1
# Glc(b1-6)Glc = molecular target: Glc(b1-6)Glc
# In short: as §1
# GlcA(b1-3)Gal = molecular target: GlcA(b1-3)Gal
# In short: as §1
# GlcA(b1-3)GlcNAc = molecular target: GlcA(b1-3)GlcNAc
# In short: as §1
# GlcA(b1-6)Gal = molecular target: GlcA(b1-6)Gal
# In short: as §1
# [8] = molecular target: GlcNAc(a1-3)Gal(b1-4)GlcNAc
# In short: as §1
# [9] = molecular target: GlcNAc(a1-4)Gal(b1-3)GlcNAc
# In short: as §1
# [10] = molecular target: GlcNAc(a1-4)Gal(b1-4)GalNAc
# In short: as §1
# [11] = molecular target: GlcNAc(a1-4)Gal(b1-4)GlcNAc
# In short: as §1
# [12] = molecular target: GlcNAc(a1-4)Gal(b1-4)GlcNAc(b1-3)Gal(b1-4)Glc
# In short: as §1
# [13] = molecular target: GlcNAc(a1-4)Gal(b1-4)GlcNAc(b1-3)Gal(b1-4)GlcNAc
# In short: as §1
# [14] = molecular target: GlcNAc(a1-4)Gal(b1-4)GlcNAc(b1-3)Gal(b1-4)GlcNAc(b1-3)Gal(b1-4)GlcNAc
# In short: as §1
# [15] = molecular target: GlcNAc(a1-4)Gal(b1-4)GlcNAc(b1-3)Gal(b1-4)[Fuc(a1-3)]GlcNAc(b1-3)Gal(b1-4)[Fuc(a1-3)]GlcNAc
# In short: as §1
# [16] = molecular target: GlcNAc(a1-6)Gal(b1-4)GlcNAc
# In short: as §1
# [17] = molecular target: GlcNAc(b1-2)Gal(b1-3)GalNAc
# In short: as §1
# [18] = molecular target: GlcNAc(b1-2)Man(a1-3)[GlcNAc(b1-2)Man(a1-6)]Man(b1-4)GlcNAc(b1-4)GlcNAc
# In short: as §1
# [19] = molecular target: GlcNAc(b1-2)Man(a1-3)[GlcNAc(b1-2)Man(a1-6)]Man(b1-4)GlcNAc(b1-4)[Fuc(a1-6)]GlcNAc
# In short: as §1
# [20] = molecular target: GlcNAc(b1-2)[GlcNAc(b1-4)]Man(a1-3)[GlcNAc(b1-2)Man(a1-6)]Man(b1-4)GlcNAc(b1-4)GlcNAc
# In short: as §1
# GlcNAc(b1-3)Gal = molecular target: GlcNAc(b1-3)Gal
# In short: as §1
# [21] = molecular target: GlcNAc(b1-3)Gal(b1-3)GalNAc
# In short: as §1
# GlcNAc(b1-3)Gal(b1-4)Glc = molecular target: GlcNAc(b1-3)Gal(b1-4)Glc
# In short: as §1
# [22] = molecular target: GlcNAc(b1-3)Gal(b1-4)GlcNAc
# In short: as §1
binder,measurement,setting,value
B1,glycan array binding signal (z-score),[1],-0.13
same,glycan array binding signal (z-score),[2],-0.093
same,glycan array binding signal (z-score),Gal3S4S(b1-4)GlcNAc,-0.131
same,glycan array binding signal (z-score),Gal3S6S(b1-4)GlcNAc,-0.136
same,glycan array binding signal (z-score),Gal3S6S(b1-4)GlcNAc6S,-0.116
same,glycan array binding signal (z-score),Gal4S(b1-4)GlcNAc,-0.121
same,glycan array binding signal (z-score),Gal4S6S(b1-4)GlcNAc,-0.136
same,glycan array binding signal (z-score),Gal6S(b1-4)Glc,-0.134
same,glycan array binding signal (z-score),Gal6S(b1-4)Glc6S,-0.121
same,glycan array binding signal (z-score),Gal6S(b1-4)GlcNAc,-0.127
same,glycan array binding signal (z-score),Gal6S(b1-4)GlcNAc6S,-0.131
same,glycan array binding signal (z-score),GalNAc(a1-3)Gal,-0.138
same,glycan array binding signal (z-score),GalNAc(a1-3)GalNAc,-0.118
same,glycan array binding signal (z-score),[3],-0.134
same,glycan array binding signal (z-score),GalNAc(b1-3)Gal,-0.125
same,glycan array binding signal (z-score),[4],-0.14
same,glycan array binding signal (z-score),[5],-0.127
same,glycan array binding signal (z-score),[6],-0.141
same,glycan array binding signal (z-score),GalNAc(b1-3)GalNAc,-0.126
same,glycan array binding signal (z-score),GalNAc(b1-4)GlcNAc,-0.122
same,glycan array binding signal (z-score),[7],-0.079
same,glycan array binding signal (z-score),Glc(a1-4)Glc,-0.129
same,glycan array binding signal (z-score),Glc(a1-6)Glc(a1-6)Glc,-0.136
same,glycan array binding signal (z-score),Glc(b1-4)Glc,-0.135
same,glycan array binding signal (z-score),Glc(b1-6)Glc,-0.133
same,glycan array binding signal (z-score),GlcA(b1-3)Gal,0.167
same,glycan array binding signal (z-score),GlcA(b1-3)GlcNAc,-0.111
same,glycan array binding signal (z-score),GlcA(b1-6)Gal,-0.133
same,glycan array binding signal (z-score),[8],-0.133
same,glycan array binding signal (z-score),[9],-0.13
same,glycan array binding signal (z-score),[10],-0.136
same,glycan array binding signal (z-score),[11],-0.121
same,glycan array binding signal (z-score),[12],-0.136
same,glycan array binding signal (z-score),[13],-0.132
same,glycan array binding signal (z-score),[14],-0.137
same,glycan array binding signal (z-score),[15],-0.067
same,glycan array binding signal (z-score),[16],-0.133
same,glycan array binding signal (z-score),[17],-0.139
same,glycan array binding signal (z-score),[18],-0.127
same,glycan array binding signal (z-score),[19],-0.112
same,glycan array binding signal (z-score),[20],-0.13
same,glycan array binding signal (z-score),GlcNAc(b1-3)Gal,-0.126
same,glycan array binding signal (z-score),[21],-0.113
same,glycan array binding signal (z-score),GlcNAc(b1-3)Gal(b1-4)Glc,-0.128
same,glycan array binding signal (z-score),[22],-0.141
